In article PMC11637378, “Optogenetic screening of MCT1 activity implicates a cluster of non-steroidal anti-inflammatory drugs (NSAIDs) as inhibitors of lactate transport” (PLOS ONE, 2024):
Where a name gives a salt, the structure may show the parent alone. Read-outs that look alike come from different tables or passages of the source.

Target: T1, R. norvegicus MCT1 (F360C) (UniProt P36035+P53987, F360C)
T1 sequence (P36035+P53987 with tags, fused parts or gaps P53987:F360C): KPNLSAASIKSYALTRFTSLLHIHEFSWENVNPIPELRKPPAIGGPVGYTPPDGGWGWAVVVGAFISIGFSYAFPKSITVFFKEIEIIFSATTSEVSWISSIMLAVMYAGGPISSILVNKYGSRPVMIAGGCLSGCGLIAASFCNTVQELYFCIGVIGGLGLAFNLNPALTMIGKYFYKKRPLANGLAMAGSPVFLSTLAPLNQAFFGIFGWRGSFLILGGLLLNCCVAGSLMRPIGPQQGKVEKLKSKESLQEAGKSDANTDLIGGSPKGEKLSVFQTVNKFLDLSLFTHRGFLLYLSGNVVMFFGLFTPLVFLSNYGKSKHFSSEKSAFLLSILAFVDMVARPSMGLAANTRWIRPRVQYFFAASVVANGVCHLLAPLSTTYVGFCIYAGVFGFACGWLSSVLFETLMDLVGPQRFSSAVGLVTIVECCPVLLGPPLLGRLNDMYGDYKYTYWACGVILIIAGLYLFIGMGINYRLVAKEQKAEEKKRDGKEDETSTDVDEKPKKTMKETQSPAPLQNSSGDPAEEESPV
Assay type: cell-based

SMILES | Day1 | Day2 | Fraction | Percent AZD3965 [%] | Z.score | Z-score | further results
CC[C@H](c1ccc(O)cc1)[C@@H](CC)c1ccc(O)cc1 [HEXESTROL] |  |  |  |  |  |  | Fraction (10 μM): 0.3476; Percent AZD3965 (10 μM): 64.1097%; Z.score (10 μM): -3.235
CCCCCCc1ccc(O)cc1O [HEXYLRESORCINOL] | 0.2333 | 0.7463 | 0.3126 | 74.3516 | -5.11 |  | 
CC[C@H](c1ccc(O)cc1)[C@@H](CC)c1ccc(O)cc1 [Hexestrol] | 0.2767 | 0.796 | 0.3476 |  | -3.235 |  | Percent: 64.1097%
O=c1cc(O)cc(/C=C/c2ccc(O)c(O)c2)o1 [Hispidin] | 0.1239 | 0.8402 | 0.1475 |  | -5.56 |  | Percent: 98.8018%; Fraction (10 μM): 0.1475; Percent AZD3965 (10 μM): 98.8018%; Z.score (10 μM): -5.56
C=CCc1ccc(O)c(-c2ccc(O)c(CC=C)c2)c1 [Honokiol] | 0.2643 | 0.7615 | 0.3471 | 63.5702 | -3.314 |  | Percent: 63.5702%
O=C(Nc1cc(C(F)(F)F)cc(C(F)(F)F)c1)c1cc(Cl)ccc1O [IMD 0354] | 0.1382 | 0.8884 | 0.1556 | 99.7056 | -5.195 |  | 
CCC(Cc1c(I)cc(I)c(N)c1I)C(=O)O (stereo not drawn) [IOPANIC ACID] | 0.2411 | 0.8091 | 0.298 | 71.6913 | -4.687 |  | 
Oc1ccc2ccccc2c1SSc1c(O)ccc2ccccc12 [IPA-3] | 0.0446 | 0.4685 | 0.0952 | 111.095 | -5.788 |  | 
CC1(C)C=Cc2c(c3c(c4c(=O)c(-c5ccc(O)c(O)c5)coc24)OC(C)(C)CC3)O1 [ISOPOMIFERIN] |  |  |  |  |  |  | Fraction (10 μM): 0.4279; Percent AZD3965 (10 μM): 48.4955%; Z.score (10 μM): -4.042
CCC(C)n1ncn(-c2ccc(N3CCN(c4ccc(OC[C@H]5CO[C@](Cn6cncn6)(c6ccc(Cl)cc6Cl)O5)cc4)CC3)cc2)c1=O.Cl.Cl (stereo partly drawn) [ITRACONAZOLE HYDROCHLORIDE] | 0.4825 | 0.8348 |  |  |  |  | Fraction (10 μM): 0.578; Percent AZD3965 (10 μM): 27.217%; Z.score (10 μM): -3.273
CC(C)Cc1ccc(C(C)C(=O)O)cc1 (stereo not drawn) [Ibuprofen, reference compound] |  |  |  | 16.6559 |  | -1.147 | 
CC(=O)[C@]1(O)Cc2c(O)c3c(c(O)c2[C@@H](O[C@H]2C[C@H](N)[C@H](O)[C@H](C)O2)C1)C(=O)c1ccccc1C3=O [Idarubicin HCl] | 0.1044 | 0.8547 | 0.1221 | 106.268 | -4.347 |  | 
CC(=O)[C@]1(O)Cc2c(O)c3c(c(O)c2[C@@H](O[C@H]2C[C@H](N)[C@H](O)[C@H](C)O2)C1)C(=O)c1ccccc1C3=O [Idarubicin] | 0.0863 | 0.8064 |  |  |  |  | Fraction (10 μM): 0.107; Percent AZD3965 (10 μM): 106.927%; Z.score (10 μM): -6.017
CC(C)Cn1cnc2c(N)nc3ccccc3c21 [Imiquimod] | 0.0717 | 0.8131 | 0.08818 | 111.279 | -5.088 |  | Percent: 111.279%
O=C1Nc2ccccc2/C1=C1/Nc2ccccc2/C1=N\O [Indirubin-3'-oxime] | 0.3455 | 0.8721 |  |  |  |  | Fraction (10 μM): 0.3962; Percent AZD3965 (10 μM): 47.0181%; Z.score (10 μM): -3.436
COc1ccc2c(c1)c(CC(=O)O)c(C)n2C(=O)c1ccc(Cl)cc1 [Indometacin] |  |  |  | 15.9426 |  | -0.9786 | 
CC(C(=O)O)c1ccc(N2Cc3ccccc3C2=O)cc1 (stereo not drawn) [Indoprofen] |  |  |  | -3.347 |  | 0.23 | 
CC(C)NNC(=O)c1ccncc1.O=P(O)(O)O [Iproniazid phosphate, reference compound] |  |  |  |  |  |  | Day1 (OD600 after 24 hours non-permissive dark conditions): 0.56; Day2 (OD600 after additional 24 hours permissive conditions): 0.8314; Fraction (growth in non-permissive phase divided by growth in permissive phase) (10 μM): 0.6736; Percent (percent AZD3965 score) (10 μM): -2.339%; Z-score (10 μM): 0.1584
CCCCC1=NC2(CCCC2)C(=O)N1Cc1ccc(-c2ccccc2-c2nnn[nH]2)cc1 [Irbesartan] | 0.2232 | 0.7566 | 0.295 | 70.4376 | -3.221 |  | Percent: 70.4376%
CC1(C)C=Cc2c(c3c(c4c(=O)c(-c5ccc(O)c(O)c5)coc24)OC(C)(C)CC3)O1 [Isopomiferin] | 0.3372 | 0.788 | 0.4279 |  | -4.042 |  | Percent: 48.4955%
Cc1cc(NC(=O)C2=C(O)c3ccccc3S(=O)(=O)N2C)no1 [Isoxicam] |  |  |  | -10.8768 |  | 0.7102 | 

SMILES | Day1 | Day2 | Fraction | Percent AZD3965 [%] | Z.score | Z-score | further results
CCC(C)n1ncn(-c2ccc(N3CCN(c4ccc(OC[C@H]5CO[C@](Cn6cncn6)(c6ccc(Cl)cc6Cl)O5)cc4)CC3)cc2)c1=O (stereo partly drawn) [Itraconazole (Sporanox)] | 0.1402 | 0.7721 | 0.1816 | 94.034 | -3.846 |  | 
CCC(C)n1ncn(-c2ccc(N3CCN(c4ccc(OCC5COC(Cn6cncn6)(c6ccc(Cl)cc6Cl)O5)cc4)CC3)cc2)c1=O (stereo not drawn) [Itraconazole] | 0.1402 | 0.7721 | 0.1816 |  | -3.846 |  | Percent: 94.034%
O=C(O)/C=C/C=C/c1ccccc1 [JUAREZIC ACID] | 0.2901 | 0.713 |  |  |  |  | Fraction (10 μM): 0.4069; Percent AZD3965 (10 μM): 52.4442%; Z.score (10 μM): -4.371
CC(C(=O)O)c1cccc(C(=O)c2ccccc2)c1 (stereo not drawn) [Ketoprofen] |  |  |  | -2.524 |  | 0.1811 | 
O=C(c1ccccc1)c1ccc2n1CCC2C(=O)O (stereo not drawn) [Ketorolac] |  |  |  | -6.212 |  | 0.2944 | 
COC1=C(CC=C(C)C)C(=O)c2ccccc2C1=O [LAPACHOL METHYL ETHER] |  |  |  |  |  |  | Fraction (10 μM): 0.2588; Percent AZD3965 (10 μM): 79.1097%; Z.score (10 μM): -4.874
COC1=C(CC=C(C)C)C(=O)c2ccccc2C1=O [Lapachol methyl ester] | 0.1932 | 0.7464 | 0.2588 |  | -4.874 |  | Percent: 79.1097%
CC(C)[C@@H]1CC[C@@H](C)C[C@H]1O [Levomenthol] |  |  |  | -4.812 |  | 0.2426 | 
COc1ccc2c(c1)c(CC(=O)O)c(C)n2Cc1ccc(Cl)cc1 [Lopac-C-1610] |  |  |  | -0.3223 |  | 0.02285 | 
CN1C(C(=O)Nc2ccccn2)=C(O)c2sc(Cl)cc2S1(=O)=O [Lornoxicam] |  |  |  | 3.795 |  | -0.2876 | 
Cc1ccc(Nc2c(F)cccc2Cl)c(CC(=O)O)c1 [Lumiracoxib] |  |  |  | 20.0905 |  | -1.521 | 
COc1cc(C)c2c(=O)c(-c3ccccc3)coc2c1 [METHOXYVONE] | 0.2578 | 0.8104 |  |  |  |  | Fraction (10 μM): 0.3181; Percent AZD3965 (10 μM): 63.3221%; Z.score (10 μM): -3.147
CC[N+](CC)(CC)CCOc1ccc(/C=C/c2ccccc2)cc1 [MG 624] | 0.0883 | 0.7745 |  |  |  |  | Fraction (10 μM): 0.114; Percent AZD3965 (10 μM): 106.144%; Z.score (10 μM): -7.209
O=C(O)[C@]1(Cc2cccc(Nc3nccs3)n2)CC[C@@H](Oc2cccc(Cl)c2F)CC1 [MK-5108 (VX-689)] | 0.2415 | 0.7782 | 0.3103 | 70.5035 | -3.675 |  | 
Cl.O=S(=O)(c1cccc2c(I)cccc12)N1CCCNCC1 [ML-7, reference compound] |  |  |  |  |  |  | Day1 (OD600 after 24 hours non-permissive dark conditions): 0.5245; Day2 (OD600 after additional 24 hours permissive conditions): 0.8146; Fraction (growth in non-permissive phase divided by growth in permissive phase) (10 μM): 0.6439; Percent (percent AZD3965 score) (10 μM): 3.417%; Z-score (10 μM): -0.2325
O=[N+]([O-])/C=C/c1ccc2c(c1)OCO2 [MNS] | 0.0443 | 0.9232 |  |  |  |  | Fraction (10 μM): 0.04799; Percent AZD3965 (10 μM): 118.786%; Z.score (10 μM): -6.684
COc1c(C)c2c(c(O)c1C/C=C(\C)CCC(=O)OCCN1CCOCC1)C(=O)OC2 [MYCOPHENOLATE MOFETIL] | 0.2489 | 0.868 | 0.2868 | 73.799 | -4.824 |  | 
COc1c(C)c2c(c(O)c1C/C=C(\C)CCC(=O)O)C(=O)OC2 [MYCOPHENOLIC ACID] | 0.318 | 0.8495 | 0.3743 | 60.7658 | -4.599 |  | 
Cc1ccc(Cl)c(Nc2ccccc2C(=O)[O-])c1Cl.[Na+] [Meclofenamate Sodium] |  |  |  | 5.567 |  | -0.3674 | 
Cc1cnc(NC(=O)C2=C(O)c3ccccc3S(=O)(=O)N2C)s1 [Meloxicam] |  |  |  | 24.7769 |  | -1.695 | 
Nc1ccc(O)c(C(=O)O)c1 [Mesalamine] |  |  |  | -0.6148 |  | 0.03086 | 
